Reference: patent US20240052065A1 (Boehringer Ingelheim, published 2024)

What was measured:
[1] = target: human CDH3 on the surface of GP2d cells (human, UniProt P22223 108-829); test: cell-based or functional assay
[2] = target: T1, recombinant human CDH3 [EC1-EC2] (human, UniProt P22223 fragment, limits assumed); test: SPR (ProteOn XPR36), bispecific captured on protein A/G, CDH3 as analyte, 1:1 Langmuir fit
T1 construct: also called HuCDH3 EC1-EC2

[3] = target: T2, recombinant human CDH3, full-length (human, UniProt P22223 fragment, limits assumed); test: as above
T2 construct: also called HuCDH3 full-length; human full-length CDH3

[4] = target: T3, recombinant human CDH3 [EC2-EC3] (human, UniProt P22223 216-440, limits assumed); test: SPR (ProteOn XPR36), bispecific captured on protein A/G, CDH3 EC2-EC3 as analyte
T3 construct: no separate entry is named for EC3; also called HuCDH3_EC2-EC3; EC2-EC3 peptide

- Kd [2]: 6.7 nM
- Kd [3]: 8.52 nM
- binding result [4]: no binding (tested: 500 nM analyte)
B1: bispecific binding molecule CDH3/TRAILR2v1 (bispecific antibody, human IgG1, kappa)
heavy: EVQLVQSGAEVKKPGESLKISCKGSGYSFTSYWIGWVRQMPGKGLEWMGIIYPGDSDTRYSPSFQGQVTISADKSISTAYLQWSSLKASDTAMYYCARHSFFDYWGQGTLVTVSSASTKGPSVFPLAPSSKSTSGGTAALGCLVKDYFPEPVTVSWNSGALTSGVHTFPAVLQSSGLYSLSSVVTVPSSSLGTQTYICNVNHKPSNTKVDKRV[letters of human IgG1 Fc with changes not shown]GGSGGSSSELTQDPAVSVALGQTVRITCQGDSLRSYYASWYQQKPGQAPVLVIYGKNNRPSGIPDRFSGSSSGNTASLTITGAQAEDEADYYCNSRDSSGNHVVFGGGTKLTVLGGGGSGGGGSGGGGSGGGGSEVQLVQSGGGVERPGGSLRLSCAASGFTFDDYGMSWVRQAPGKGLEWVSGINWNGGSTGYADSVKGRVTISRDNAKNSLYLQMNSLRAEDTAVYYCAKILGAGRGWYFDLWGKGTTVTVSS
light: [letters of about 100 residues not shown][letters of about 120 residues not shown]
notes: also called CDH3/TR2v1
- cell viability of GP2d cells after 24 h (CellTiter-Glo), EC50 [1]: 0.337 nM
- cell viability of GP2d cells after 24 h (CellTiter-Glo), potency against Lexatumumab alone [1]: 17 fold
